The full ranking holds about 81,000 sequences; the median of “one-hybrid fitness for binding NBS DNA” is about -0.1, and the highest 2% start at about 0.36. Some of the results follow.

B1: Caulobacter ParB omega fusion; a variant is named by its letters at X, in order, B8GW30 (parent)
chain: MESVVVGEPGMSEGRRGLGRGLSALLGEVDAAPAQAPGEQLGGSREAPIEILQRNPDQPRRTFREEDLEDLSNSIREKGVLQPILVRPSPDTAGEYQIVAGERAWRAAQRAGLKTVPIMVRELDDLAVLEIGIIENVQRADLNVLEEALSYKVLMEKFERTQENIAQTIGKSXSHVANXMRLLXLPDEVQSYLVSGELTAXHARAIAAAADPVALAKQIIEGGLSVRETEALARKAPNLSAGKSKGGRPPRVKDTDTQALESDLSSVLGLDVSIDHRGSTGTLTITYATLEQLDDLCNRLTRGI

Variants of B1 are the subject of this experiment. Put plainly: one-hybrid fitness for binding NBS DNA (the Noc-binding site; scaled: cognate 1, non-cognate 0); higher = stronger binding. To be noted: with NBS DNA site. Summed up: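 On M9-minus-histidine containing 0.1 mM IPTG and 5 mM 3-AT, E. coli USO cells with a HIS3 reporter, site 19 bp from the promoter, grew 48 hours at 37°C to select Caulobacter ParB libraries randomised at four specificity codons. Plasmids from before and after were Illumina-sequenced, with three replicate libraries pooled and variants under 10 reads left out. Fitness is the log change in variant-to-wild-type read ratio, rescaled against cognate and non-cognate.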
AVTE: the “one-hybrid fitness for binding NBS DNA” value was ≤ 0.2. As for WVIC, the figure is ≤ 0.2; as for KMWF, ≤ 0.2. As to VMAG, the “one-hybrid fitness for binding NBS DNA” value is ≤ 0.2. As for RYDN, the figure is ≤ 0.2; as for IPTF, ≤ 0.2. On to AQCG, for which the “one-hybrid fitness for binding NBS DNA” value is ≤ 0.2. As for VRHT, the figure is 0.265; as for PWDE, ≤ 0.2.

For the variant VLDV, the “one-hybrid fitness for binding NBS DNA” value is ≤ 0.2. The value for DFWV was ≤ 0.2; that for QCKM was 0.464. For the variant SALA, the “one-hybrid fitness for binding NBS DNA” value is ≤ 0.2. As for MLLC, the figure is ≤ 0.2; as for DLQG, ≤ 0.2; as for QALL, ≤ 0.2. The value for TFRC was ≤ 0.2. As for DDPT, the figure is ≤ 0.2. In the case of NVQL, the “one-hybrid fitness for binding NBS DNA” value was ≤ 0.2. On to HRPE, for which the “one-hybrid fitness for binding NBS DNA” value was ≤ 0.2.

On to TVRR, for which the “one-hybrid fitness for binding NBS DNA” value is ≤ 0.2. For the variant GPSN, the “one-hybrid fitness for binding NBS DNA” value is ≤ 0.2. As for DANW, the figure is ≤ 0.2; as for AGGN, ≤ 0.2; as for KFRS, ≤ 0.2. Consider FKPA, for which the “one-hybrid fitness for binding NBS DNA” value is ≤ 0.2. As for YAYV, the figure is ≤ 0.2. For the variant TCCT, the “one-hybrid fitness for binding NBS DNA” value was ≤ 0.2. The value for QLNR was 0.551. As for LNCV, the figure is ≤ 0.2; as for DRAV, ≤ 0.2; as for ITCS, ≤ 0.2.

As to RRQD, the “one-hybrid fitness for binding NBS DNA” value was ≤ 0.2. On to RCTP, for which the “one-hybrid fitness for binding NBS DNA” value was ≤ 0.2. The value for VCVF was ≤ 0.2; that for TKPM was ≤ 0.2. The value for FQPR was ≤ 0.2; that for RMHT was 0.448; that for PSNK was ≤ 0.2. As for STHE, the figure is ≤ 0.2. For VKGF, the “one-hybrid fitness for binding NBS DNA” value is ≤ 0.2. With QLVR, the “one-hybrid fitness for binding NBS DNA” value amounted to 0.34. As for DHAI, the figure is ≤ 0.2; as for SKWR, ≤ 0.2; as for QPTF, ≤ 0.2. The value for PVDL was ≤ 0.2; that for VMPR was ≤ 0.2. For ATIG, the “one-hybrid fitness for binding NBS DNA” value is ≤ 0.2. As for NMYG, the figure is ≤ 0.2; as for ADKA, ≤ 0.2; as for VQKH, ≤ 0.2.

As for ARFY, the “one-hybrid fitness for binding NBS DNA” value was ≤ 0.2. Take EINP: the “one-hybrid fitness for binding NBS DNA” value is ≤ 0.2.

With RGKQ, the “one-hybrid fitness for binding NBS DNA” value is ≤ 0.2. As for IELS, the figure is ≤ 0.2. The value for RTSM was ≤ 0.2. On to SLNL, for which the “one-hybrid fitness for binding NBS DNA” value is ≤ 0.2.

Regarding GNKT, the “one-hybrid fitness for binding NBS DNA” value is ≤ 0.2. The value for KHSC was ≤ 0.2. For WSPT, the “one-hybrid fitness for binding NBS DNA” value is ≤ 0.2. In the case of NKNS, the “one-hybrid fitness for binding NBS DNA” value is ≤ 0.2. As for KVWS, the figure is ≤ 0.2. The value for VMIS was ≤ 0.2. Regarding APGW, the “one-hybrid fitness for binding NBS DNA” value was ≤ 0.2. As for LDSK, the figure is ≤ 0.2. As for YCIC, the figure is ≤ 0.2. As for DDPE, the “one-hybrid fitness for binding NBS DNA” value is ≤ 0.2. As for EWPD, the figure is ≤ 0.2; as for TPAE, ≤ 0.2. As for HRFS, the figure is ≤ 0.2; as for GIPD, ≤ 0.2; as for SQEI, ≤ 0.2. The value for KPQS was ≤ 0.2. For the variant TACS, the “one-hybrid fitness for binding NBS DNA” value was ≤ 0.2. The value for LCPE was ≤ 0.2. With QLAV, the “one-hybrid fitness for binding NBS DNA” value was ≤ 0.2. As for NGRG, the figure is ≤ 0.2; as for SFLF, ≤ 0.2.

For the variant WNIS, the “one-hybrid fitness for binding NBS DNA” value was ≤ 0.2. On to SQHY, for which the “one-hybrid fitness for binding NBS DNA” value is ≤ 0.2. In the case of TWVS, the “one-hybrid fitness for binding NBS DNA” value was ≤ 0.2. Regarding GEVF, the “one-hybrid fitness for binding NBS DNA” value is ≤ 0.2. On to TQFS, for which the “one-hybrid fitness for binding NBS DNA” value is ≤ 0.2.

With PACN, the “one-hybrid fitness for binding NBS DNA” value was ≤ 0.2. As for PIEA, the figure is ≤ 0.2; as for IPWR, ≤ 0.2; as for FKKT, ≤ 0.2.

Turning to RFGR, the “one-hybrid fitness for binding NBS DNA” value came to 0.23.

As to HFAM, the “one-hybrid fitness for binding NBS DNA” value is ≤ 0.2. NASS: the “one-hybrid fitness for binding NBS DNA” value was ≤ 0.2.

Take DESS: the “one-hybrid fitness for binding NBS DNA” value was ≤ 0.2. As for MYGC, the figure is ≤ 0.2; as for MNAW, ≤ 0.2. The value for HMHM was ≤ 0.2; that for LIWY was ≤ 0.2. For the variant QTET, the “one-hybrid fitness for binding NBS DNA” value amounted to 0.439. The value for TRWV was ≤ 0.2; that for ILGS was ≤ 0.2.

In the case of DVWT, the “one-hybrid fitness for binding NBS DNA” value was ≤ 0.2. The value for CTFC was ≤ 0.2. As for TQPW, the figure is ≤ 0.2; as for KLRN, ≤ 0.2. As for EHLW, the figure is ≤ 0.2; as for SCER, ≤ 0.2. As to HVKV, the “one-hybrid fitness for binding NBS DNA” value is ≤ 0.2. On to VRLS, for which the “one-hybrid fitness for binding NBS DNA” value is ≤ 0.2.

Take NIII: the “one-hybrid fitness for binding NBS DNA” value was ≤ 0.2. As for HCPC, the figure is ≤ 0.2; as for VPAH, ≤ 0.2; as for WAGN, ≤ 0.2.

In the case of CPIL, the “one-hybrid fitness for binding NBS DNA” value is ≤ 0.2. The value for STDR was ≤ 0.2; that for NNNA was ≤ 0.2. As for AITL, the figure is ≤ 0.2; as for SPGL, ≤ 0.2; as for CLCV, ≤ 0.2.

As for TTLC, the “one-hybrid fitness for binding NBS DNA” value is ≤ 0.2. ATHM: the “one-hybrid fitness for binding NBS DNA” value is ≤ 0.2. On to QQFM, for which the “one-hybrid fitness for binding NBS DNA” value was ≤ 0.2. Consider SPEG, for which the “one-hybrid fitness for binding NBS DNA” value is ≤ 0.2. As for HSNT, the figure is ≤ 0.2; as for YHRV, ≤ 0.2. As for WIVS, the figure is ≤ 0.2; as for EAPT, 0.239; as for VKIM, ≤ 0.2. Regarding GDNR, the “one-hybrid fitness for binding NBS DNA” value is ≤ 0.2. As for NSTN, the figure is ≤ 0.2. As for NSDW, the figure is ≤ 0.2; as for YPDE, ≤ 0.2; as for QKYG, ≤ 0.2.

Consider AYRT, for which the “one-hybrid fitness for binding NBS DNA” value was ≤ 0.2. The value for KTMS was ≤ 0.2; that for GCTC was ≤ 0.2; that for PFRC was ≤ 0.2. As for TLWD, the figure is ≤ 0.2; as for KMTH, ≤ 0.2; as for EELG, ≤ 0.2.

Regarding LHRP, the “one-hybrid fitness for binding NBS DNA” value is ≤ 0.2. As for RYDQ, the figure is ≤ 0.2; as for YSTD, ≤ 0.2. The value for TATV was ≤ 0.2; that for NTVS was ≤ 0.2; that for NRLA was ≤ 0.2. As to KNHG, the “one-hybrid fitness for binding NBS DNA” value was ≤ 0.2. As for DDNA, the figure is ≤ 0.2; as for PTDK, ≤ 0.2. The value for AFHL was ≤ 0.2. The value for PYTW was ≤ 0.2; that for QDSC was ≤ 0.2. With TTSH, the “one-hybrid fitness for binding NBS DNA” value was ≤ 0.2. As for PFGA, the figure is ≤ 0.2; as for PANN, ≤ 0.2; as for MVRC, ≤ 0.2.

The values are drawn from a collection of fitness landscapes (doi:10.1016/j.celrep.2020.107928).
